Some of the results follow. No stated cut-off is given here; in the data, active = 3.2 or more and inactive = the rest. The signal is at background level for most entries.
Each binder was assayed against SHP2 C-SH2 domain E139D (assay: enrichment score (SH2-bound / input frequency) (ratio); bacterial display of known human phosphotyrosine sites (pTyr-Var adds point mutants) read by sequencing; higher = stronger binding; tyrosines were phosphorylated by kinases first). Conditions: peptide library: pTyr-Var.
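Further: displayed peptides selected on beads carrying the immobilized SH2 domain, with library peptides lacking any tyrosine serving as negative controls.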

Enrichment score, inactive:
FRRITYHNWRH [PDE6B_Y556_YF] 0.343, FHKALYTVRSY [PDE6C_Y266] 0.602, FHKALYTVRSF [PDE6C_Y266_YF] 0.937, PDGHEYIFVDP [PDGFRA_Y572_YF] 0.56, GREYIYVDPMQ [PDGFRA_Y574_H570R] 1.49, GREFIYVDPMQ [PDGFRA_Y574_H570R_YF] 0.917, GHEFIYVDPMQ [PDGFRA_Y574_YF] 0.96, PMQMPYDSRWE [PDGFRA_Y582_L580M] 0.812, DRPASYKKKSM [PDGFRA_Y768] 0.506, MHDSNYVSKGS [PDGFRA_Y849] 0.506, MHFSNYVSKGS [PDGFRA_Y849_D846Y_YF] 0.979, MHDSNSVSKGS [PDGFRA_Y849_Y849S] 0.578, QKKPCYEIRWK [PDGFRB_Y562_R561C] 2.76, SDGHEYIYVDR [PDGFRB_Y579_P584R] 0.707, GHEYIYVDRMQ [PDGFRB_Y581_P584R] 1.18, GHEFIYVDRMQ [PDGFRB_Y581_P584R_YF] 0.946, RMQLPYDSTWE [PDGFRB_Y589_P584R] 0.79, PSAELYSNALP [PDGFRB_Y716] 0.535

These binders were tested against SHP2 C-SH2 domain wild-type in the same assay as above. Conditions: peptide library: pTyr-Var.

Enrichment score, inactive:
FRRITYHNWRH [PDE6B_Y556_YF] 0.214, FHKALYTVRSY [PDE6C_Y266] 0.563, FHKALYTVRSF [PDE6C_Y266_YF] 0.774, PDGHEYIFVDP [PDGFRA_Y572_YF] 0.512, GREYIYVDPMQ [PDGFRA_Y574_H570R] 1.06, GREFIYVDPMQ [PDGFRA_Y574_H570R_YF] 0.55, GHEFIYVDPMQ [PDGFRA_Y574_YF] 0.896, PMQMPYDSRWE [PDGFRA_Y582_L580M] 0.579, DRPASYKKKSM [PDGFRA_Y768] 0.426, MHDSNYVSKGS [PDGFRA_Y849] 0.382, MHFSNYVSKGS [PDGFRA_Y849_D846Y_YF] 0.7, MHDSNSVSKGS [PDGFRA_Y849_Y849S] 0.616, QKKPCYEIRWK [PDGFRB_Y562_R561C] 2.64, SDGHEYIYVDR [PDGFRB_Y579_P584R] 0.629, GHEYIYVDRMQ [PDGFRB_Y581_P584R] 0.993, GHEFIYVDRMQ [PDGFRB_Y581_P584R_YF] 0.956, RMQLPYDSTWE [PDGFRB_Y589_P584R] 0.679, PSAELYSNALP [PDGFRB_Y716] 0.818

Each binder was assayed against SHP2 N-SH2 domain L43F in the same assay as above. Conditions: peptide library: pTyr-Var.

Enrichment score, inactive:
FRRITYHNWRH [PDE6B_Y556_YF] 0.438, FHKALYTVRSY [PDE6C_Y266] 0.657, FHKALYTVRSF [PDE6C_Y266_YF] 0.634, PDGHEYIFVDP [PDGFRA_Y572_YF] 0.62, GREYIYVDPMQ [PDGFRA_Y574_H570R] 1.08, GREFIYVDPMQ [PDGFRA_Y574_H570R_YF] 1.11, GHEFIYVDPMQ [PDGFRA_Y574_YF] 0.939, PMQMPYDSRWE [PDGFRA_Y582_L580M] 0.817, DRPASYKKKSM [PDGFRA_Y768] 0.303, MHDSNYVSKGS [PDGFRA_Y849] 0.47, MHFSNYVSKGS [PDGFRA_Y849_D846Y_YF] 0.798, MHDSNSVSKGS [PDGFRA_Y849_Y849S] 0.557, QKKPCYEIRWK [PDGFRB_Y562_R561C] 2.89, SDGHEYIYVDR [PDGFRB_Y579_P584R] 0.613, GHEYIYVDRMQ [PDGFRB_Y581_P584R] 1.1, GHEFIYVDRMQ [PDGFRB_Y581_P584R_YF] 0.941, RMQLPYDSTWE [PDGFRB_Y589_P584R] 1.16, PSAELYSNALP [PDGFRB_Y716] 0.665

Each binder was assayed against SHP2 N-SH2 domain T42A in the same assay as above. Conditions: peptide library: pTyr-Var.

Enrichment score, inactive:
FRRITYHNWRH [PDE6B_Y556_YF] 0.175, FHKALYTVRSY [PDE6C_Y266] 0.412, FHKALYTVRSF [PDE6C_Y266_YF] 0.632, PDGHEYIFVDP [PDGFRA_Y572_YF] 0.507, GREYIYVDPMQ [PDGFRA_Y574_H570R] 1.1, GREFIYVDPMQ [PDGFRA_Y574_H570R_YF] 0.814, GHEFIYVDPMQ [PDGFRA_Y574_YF] 0.846, PMQMPYDSRWE [PDGFRA_Y582_L580M] 0.738, DRPASYKKKSM [PDGFRA_Y768] 0.327, MHDSNYVSKGS [PDGFRA_Y849] 0.469, MHFSNYVSKGS [PDGFRA_Y849_D846Y_YF] 0.833, MHDSNSVSKGS [PDGFRA_Y849_Y849S] 0.573, QKKPCYEIRWK [PDGFRB_Y562_R561C] 2.62, SDGHEYIYVDR [PDGFRB_Y579_P584R] 0.679, GHEYIYVDRMQ [PDGFRB_Y581_P584R] 0.852, GHEFIYVDRMQ [PDGFRB_Y581_P584R_YF] 0.847, RMQLPYDSTWE [PDGFRB_Y589_P584R] 0.766, PSAELYSNALP [PDGFRB_Y716] 0.645

Each binder was assayed against SHP2 N-SH2 domain T52S in the same assay as above. Conditions: peptide library: pTyr-Var.

Enrichment score, inactive:
FRRITYHNWRH [PDE6B_Y556_YF] 0.399, FHKALYTVRSY [PDE6C_Y266] 0.46, FHKALYTVRSF [PDE6C_Y266_YF] 0.966, PDGHEYIFVDP [PDGFRA_Y572_YF] 0.601, GREYIYVDPMQ [PDGFRA_Y574_H570R] 1.01, GREFIYVDPMQ [PDGFRA_Y574_H570R_YF] 0.734, GHEFIYVDPMQ [PDGFRA_Y574_YF] 0.883, PMQMPYDSRWE [PDGFRA_Y582_L580M] 0.827, DRPASYKKKSM [PDGFRA_Y768] 0.49, MHDSNYVSKGS [PDGFRA_Y849] 0.419, MHFSNYVSKGS [PDGFRA_Y849_D846Y_YF] 0.782, MHDSNSVSKGS [PDGFRA_Y849_Y849S] 0.534, QKKPCYEIRWK [PDGFRB_Y562_R561C] 2.08, SDGHEYIYVDR [PDGFRB_Y579_P584R] 0.762, GHEYIYVDRMQ [PDGFRB_Y581_P584R] 1.06, GHEFIYVDRMQ [PDGFRB_Y581_P584R_YF] 1.01, RMQLPYDSTWE [PDGFRB_Y589_P584R] 0.681, PSAELYSNALP [PDGFRB_Y716] 0.853

These binders were tested against SHP2 N-SH2 domain wild-type in the same assay as above. Conditions: peptide library: pTyr-Var.

Enrichment score, inactive:
FRRITYHNWRH [PDE6B_Y556_YF] 0.284, FHKALYTVRSY [PDE6C_Y266] 1.16, FHKALYTVRSF [PDE6C_Y266_YF] 0.88, PDGHEYIFVDP [PDGFRA_Y572_YF] 0.591, GREYIYVDPMQ [PDGFRA_Y574_H570R] 1.18, GREFIYVDPMQ [PDGFRA_Y574_H570R_YF] 0.629, GHEFIYVDPMQ [PDGFRA_Y574_YF] 1, PMQMPYDSRWE [PDGFRA_Y582_L580M] 0.785, DRPASYKKKSM [PDGFRA_Y768] 0.407, MHDSNYVSKGS [PDGFRA_Y849] 0.401, MHFSNYVSKGS [PDGFRA_Y849_D846Y_YF] 0.887, MHDSNSVSKGS [PDGFRA_Y849_Y849S] 0.537, QKKPCYEIRWK [PDGFRB_Y562_R561C] 2.68, SDGHEYIYVDR [PDGFRB_Y579_P584R] 0.662, GHEYIYVDRMQ [PDGFRB_Y581_P584R] 0.959, GHEFIYVDRMQ [PDGFRB_Y581_P584R_YF] 0.721, RMQLPYDSTWE [PDGFRB_Y589_P584R] 1.42, PSAELYSNALP [PDGFRB_Y716] 0.953
